Data: PubChem BioAssay AID493035 (The Scripps Research Institute Molecular Screening Center, 2011)
In all, about 2,000 compounds went through this assay and about 45 (2%) were called active.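 The calls were made as follows: active = inhibition above the mean of all tested compounds plus 3 SD (cut at about 49% in these data); inactive = the rest.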 The list shows a part of the results.

biological target: Perilipin-5 (Homo sapiens) + 1-acylglycerol-3-phosphate O-acyltransferase ABHD5 (Homo sapiens) (UniProt Q00G26+Q8WTS1); test: ABHD5-PLIN5 interaction inhibitors, pilot screen, cell lysate, split luciferase complementation, luminescence, NIH validation set (AID 493035);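 also: 0% = DMSO only wells while the 100% control is not stated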; settings: split G. princeps luciferase complementation, lysates, 4 h; at 7.9 µM, active compounds read high
Chain of UniProt Q00G26 (Q00G26 whole entry, looked up): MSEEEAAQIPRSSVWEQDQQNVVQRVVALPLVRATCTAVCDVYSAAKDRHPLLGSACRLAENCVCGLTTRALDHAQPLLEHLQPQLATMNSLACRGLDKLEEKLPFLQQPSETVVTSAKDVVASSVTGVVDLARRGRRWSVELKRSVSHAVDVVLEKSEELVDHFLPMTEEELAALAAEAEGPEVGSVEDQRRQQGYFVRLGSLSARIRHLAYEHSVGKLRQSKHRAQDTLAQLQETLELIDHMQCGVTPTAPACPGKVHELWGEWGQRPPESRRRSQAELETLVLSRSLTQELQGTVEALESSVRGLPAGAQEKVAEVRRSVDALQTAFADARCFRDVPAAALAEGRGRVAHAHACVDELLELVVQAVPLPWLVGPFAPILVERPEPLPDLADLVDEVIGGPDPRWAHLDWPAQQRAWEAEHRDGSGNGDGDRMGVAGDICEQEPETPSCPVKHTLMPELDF
Chain of UniProt Q00G26 (Q8WTS1 whole entry, looked up): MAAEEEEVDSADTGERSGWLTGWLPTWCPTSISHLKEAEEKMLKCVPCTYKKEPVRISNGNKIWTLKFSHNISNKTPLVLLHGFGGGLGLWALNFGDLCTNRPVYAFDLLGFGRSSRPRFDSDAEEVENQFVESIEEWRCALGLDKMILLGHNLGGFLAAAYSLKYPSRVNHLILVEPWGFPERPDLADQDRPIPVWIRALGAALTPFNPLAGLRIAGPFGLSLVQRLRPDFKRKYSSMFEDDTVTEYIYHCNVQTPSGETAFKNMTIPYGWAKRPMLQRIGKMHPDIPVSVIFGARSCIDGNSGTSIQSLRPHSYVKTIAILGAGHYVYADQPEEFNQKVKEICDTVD

inhibition, inactive:
CO[C@H]1C=CO[C@@]2(C)Oc3c(C)c(O)c4c(O)c(c(C=NN5CCN(C)CC5)c(O)c4c3C2=O)NC(=O)C(C)=CC=C[C@H](C)[C@H](O)[C@@H](C)[C@@H](O)[C@@H](C)[C@H](OC(C)=O)[C@@H]1C 16%
CC(=O)Nc1nnc(S(N)(=O)=O)s1 5.36%
CC(C)Oc1ccc2c(=O)c(-c3ccccc3)coc2c1 4.3%
COc1cc2[nH]c3c(=O)n(CCN4CCOCC4)cnc3c2cc1OC -5.21%
CC(C)N(C(=O)Cc1ccccc1[N+](=O)[O-])C(C)C -3.66%
Cc1ccc(C(=O)Nc2ccc(O)cc2C(=O)O)cc1C -10.3%
COc1ccc(C2OC(=O)Cc3cc(OC)c(OC)cc32)cc1 (stereo unspecified) -0.18%
CC(/C=C1\SC(=O)N(CCCC(=O)O)C1=O)=C\c1ccccc1 14.2%
CCc1cc(/C(Cc2ccccn2)=N\O)c(O)cc1O -2.91%
CCc1cc(-c2[nH]ncc2-c2ccc3c(c2)OCO3)c(O)cc1O -2.89%
O=C(O)c1ccc(N2C(=O)/C(=C\c3ccccc3)N=C2c2ccccc2)cc1 5.77%
COc1ccc(CCNC(=O)CC(c2ccccc2)c2cccc(C)c2O)cc1OC (stereo unspecified) -2.01%
COc1ccc(/C=C2\CCc3ccccc3C2=O)c(OC)c1OC -7.62%
CCOC(=O)C1=C(N)Oc2c(c(=O)[nH]c3ccccc23)C1c1ccccc1 (stereo unspecified) -12.7%
CC1(C)O[C@@H]2C[C@H]3[C@@H]4C[C@H](F)C5=CC(=O)C=C[C@]5(C)[C@@]4(F)[C@@H](O)C[C@]3(C)[C@]2(C(=O)CO)O1 -1.8%
O=C(c1ccc(Cl)cc1)C1CCCN(C(=O)/C=C/c2ccccn2)C1 (stereo unspecified) 8.56%
FC(F)(F)c1ccc(-c2noc(CN3CCCN(C4CCCCC4)CC3)n2)cc1 -2.21%
COc1cc(CNCCc2c[nH]c3ccccc23)cc(Cl)c1OCC(N)=O 1.42%
COc1ccc(Cl)cc1C(=O)NCCc1ccc(S(=O)(=O)NC(=O)NC2CCCCC2)cc1 2.7%
CC(=O)OCC(=O)C1=CCC2C3CCC4=CC(=O)C=CC4(C)C3(F)C(OC(C)=O)CC12C (stereo unspecified) -5.43%
CC#C[C@]1(O)CC[C@H]2[C@@H]3CCC4=CC(=O)CCC4=C3[C@@H](c3ccc(N(C)C)cc3)C[C@@]21C 12.6%
COC(=O)c1cc(COc2ccc3ccc(=O)oc3c2)c(C)o1 -8.87%
CCN(CCCCOC(=O)c1ccc(OC)c(OC)c1)C(C)Cc1ccc(OC)cc1 (stereo unspecified) -5.96%
Cc1cc(C(C)(C)C)cc(C)c1CC1=NCCN1 -1.08%
C[C@@H]1C[C@H]2[C@@H]3CCC4=CC(=O)C=C[C@]4(C)[C@@]3(F)[C@@H](O)C[C@]2(C)[C@H]1C(=O)CO -6.69%
COc1cc2nc(N3CCN(C(=O)C4COc5ccccc5O4)CC3)nc(N)c2cc1OC (stereo unspecified) -2.13%
COc1cc(OC)cc(C(=O)N[C@@H](CCSC)c2nc3ccccc3[nH]2)c1 -1.41%
Cc1ccc(C(=O)COC(=O)c2cnccn2)cc1[N+](=O)[O-] 0.17%
NC12CC3CC(C1)CC(O)(C3)C2 -9.99%
Cc1[nH]c2ccccc2c1C(=O)CN1CCCC1 2.6%
COc1cc2c(cc1OC)CN(Cc1ccc(C)s1)CC2 11%
CC(C)C1Cc2[nH]c(=O)c(C(=O)O)cc2CO1 (stereo unspecified) -2.8%
CC1(C)Cc2nc3sc4c(=O)n(CC(N)=O)cnc4c3cc2CO1 -1.38%
NC[C@H]1O[C@H](O[C@H]2[C@H](O)[C@@H](O[C@H]3O[C@H](CO)[C@@H](O)[C@H](N)[C@H]3O)[C@H](N)C[C@@H]2N)[C@H](N)C[C@@H]1O -14%
COc1cc(-c2nnc(-c3cccs3)o2)cc(OC)c1OC -1.78%
Cc1ncc(CN2CCC(CO)(CCc3ccccc3)CC2)s1 -0.2%
O=C(/C=C/c1ccccc1)NCC1(c2ccccc2)CCOCC1 -8.05%
CC1(C)C2CCC1(C)C(OCC[N+](C)(C)CC(=O)OC1CCCCC1)C2 (stereo unspecified) -0.98%
Nc1nc2c(ncn2COC(CO)CO)c(=O)[nH]1 -2.3%
CCOc1ccc(N2C(=O)CNC2=S)cc1 -13.8%
CC(=O)OC[C@H]1O[C@@H](Sc2cccc3cccnc23)[C@H](OC(C)=O)[C@@H](OC(C)=O)[C@H]1OC(C)=O 8.8%
CC(C)CCNC(=O)[C@H](CC(C)C)NC(=O)[C@H]1O[C@@H]1C(=O)O 4.43%
CNCCc1ccccn1 2.26%
CC(C)CC(NC(=O)c1cccc(Cl)c1)C(=O)O (stereo unspecified) -11%
Cc1csc(N)n1 5.92%
COc1ccc(O)c(C2=Nc3ccccc3N=C(c3ccccc3)C2)c1 -11.4%
CCCNC(=O)NS(=O)(=O)c1ccc(Cl)cc1 0.67%
CC(=O)O[C@]1(C(C)=O)CC[C@H]2[C@@H]3C=C(Cl)C4=CC(=O)CC[C@]4(C)[C@H]3CC[C@@]21C 5.85%
Cc1cc(C(=O)NC(CC(C)C)C(=O)O)cc(C)c1[N+](=O)[O-] (stereo unspecified) 2.44%
NC(N)=NC(N)=Nc1ccc2ccccc2c1 -9.4%
COc1ccc(CCn2c(C)cc3c(c2=O)C(c2ccncc2)C(C#N)=C(N)O3)cc1OC (stereo unspecified) -4.13%
COc1ccc(C(=O)N2c3cc4c(cc3C(C)=CC2(C)C)OCO4)cc1 -4.53%
CC(C)CN(C)Cc1c(C(=O)N2CCc3ccccc3C2)nc2ccc(Cl)cn12 1.64%
CC1(C)CC(NCc2ccccc2)CCO1 (stereo unspecified) -3.35%
CCc1c(C(C)=O)oc2ccc3c(C)cc(=O)oc3c12 -7.45%
O=C1c2ccccc2N2C(=O)c3ccccc3C2N1Cc1ccco1 (stereo unspecified) 32.5%
